First the molecules themselves.
B1: UniProt A0EPZ9; numbered along this chain (parent)
chain: MDWQKSLTLIVALTLSRGIGLKNDLPWKLKSDMMFFSRVTSGLLVTRSTGQMNVVLMGRKTWESLPAHSRPLKNRINVVISRQEVLDLGGGAYHARSLDDALALLSQIYDSTSKIQLNRVFVIGGGELCKAAMEHSRLNRIIATVIHNEVDCDVFFPIDFRSSQSCLPWRKQDHSVLEAWVGSKVPQGKINENGFIYEFEMWIRDI

Variants of B1 are the subject of the data set. Nature of the data set: selection coefficient against synonymous wild-type codons (log2 per generation); higher = faster growth than wild type. The note with it: with Saccharomyces cerevisiae carrying the variant on a plasmid. As for the experimental part:
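Pooled growth of yeast carrying single-residue variants of P. jirovecii dihydrofolate reductase (own DFR1 gene intact), two passages at 30 °C, three cultures, sequenced before and after. Codons with under 15 starting reads are left out; codons of one change are averaged.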

± gives the standard deviation of the averaged measurements. Growth of baker's yeast expressing single-residue variants of Pneumocystis jirovecii dihydrofolate reductase in 8.8 or 44 µM methotrexate (about 75% and 90% inhibition of the wild type). Selection coefficient per generation; 0 = like wild type, above 0 = less sensitive, below 0 = more sensitive or loss of function. No active / inactive call per row; the paper calls resistant above 0.220 (8.8 µM) or 0.243 (44 µM) together with a significance test. At 44 µM about 15% of codons end with one read or none, so the lowest values are floors (replicate rank correlation 0.74; 0.94 at 8.8 µM).

Turning to MDWQKSLTLIVALTLSCGIGLKNDLPWKLKSDMMFFSRVTSGLLVTRSTGQMNVVLMGRKTWESLPAHSRPLKNRINVVISRQEVLDLGGGAYHARSLDDALALLSQIYDSTSKIQLNRVFVIGGGELCKAAMEHSRLNRIIATVIHNEVDCDVFFPIDFRSSQSCLPWRKQDHSVLEAWVGSKVPQGKINENGFIYEFEMWIRDI [R17C], the “selection coefficient against synonymous wild-type codons (log2)” value (“selection coefficient … (log2)” for short) was -0.168 ± 0.02 (methotrexate 8.8 µM) and -0.193 ± 0.13 (methotrexate 44 µM).
Take MDWQKSLTLIVALTLSRGIGLKNDLPWKLKSDMMFFSRVTSGLLVTRSTGQMNVVLMGRKTWESLPAHSRPLKNRINVVISRQEVLDLGGGAYHARSLDDALALLSQIYDSTSKIQLNRVFVIGGGELCKAAMEHSRLNRIIATVIHNEVDCDVFFPIDFRSSQSCLPWRKQDHSVLEAWVGSKVPQCKINENGFIYEFEMWIRDI [G188C]: the “selection coefficient … (log2)” value reads like this: (methotrexate 8.8 µM) -0.171 ± 0.07; (methotrexate 44 µM) -0.18 ± 0.021.
The corresponding values for MDWQKSLTLIVALTLSRGIGLSNDLPWKLKSDMMFFSRVTSGLLVTRSTGQMNVVLMGRKTWESLPAHSRPLKNRINVVISRQEVLDLGGGAYHARSLDDALALLSQIYDSTSKIQLNRVFVIGGGELCKAAMEHSRLNRIIATVIHNEVDCDVFFPIDFRSSQSCLPWRKQDHSVLEAWVGSKVPQGKINENGFIYEFEMWIRDI [K22S] are 0.14 ± 0.054 and 0.139 ± 0.092.
With MDWQKSLTLIVALTLSRGIGLKNDLPWKLKSDMMFFSRVTSGLLVTRSTGQMNVVLMGRKTWESLPAHSRPLKNRINVVISRQEVLDLGGGAYHARSLDDALALLSQIYDSTSKIQLNRVFVIGGGELCKAAMEHSRLNRIIATVIHNEVDCDVFFPIDFRSSQSCLPWRKQDHSVLEAWVGSKVPQGHINENGFIYEFEMWIRDI [K189H], the “selection coefficient … (log2)” value by setting is: (methotrexate 8.8 µM) -0.131 ± 0.02; (methotrexate 44 µM) -0.198 ± 0.058.
Consider MDWQKSLTLIVALTLSRGIGLKNDLPWKLKSDMMFFSRVTSGLLVTRSTGQMNVVLMGRKTWESLPAHSRPLKNRINVVISRQEVLDLGGGAYHARSLDDALALLSQIYDSTSKIQLNRVFVIGGGELCKAAMEHSRLNRIIATVIHNEVDCDVFFPIDFRSSQSCLPWRKQDHKVLEAWVGSKVPQGKINENGFIYEFEMWIRDI [S175K], for which the “selection coefficient … (log2)” value reads like this: (methotrexate 8.8 µM) 0.0092 ± 0.043; (methotrexate 44 µM) -0.0762 ± 0.097.
Turning to MDWQKSLTLIVALTLSRGIGLKNDLPWKLKSDMMFFSRVTSGLLVTRSTGQMNVVLMGRRTWESLPAHSRPLKNRINVVISRQEVLDLGGGAYHARSLDDALALLSQIYDSTSKIQLNRVFVIGGGELCKAAMEHSRLNRIIATVIHNEVDCDVFFPIDFRSSQSCLPWRKQDHSVLEAWVGSKVPQGKINENGFIYEFEMWIRDI [K60R], the “selection coefficient … (log2)” value reads like this: (methotrexate 8.8 µM) -0.128 ± 0.064; (methotrexate 44 µM) -0.0539 ± 0.19.
With MDWQKSLTMIVALTLSRGIGLKNDLPWKLKSDMMFFSRVTSGLLVTRSTGQMNVVLMGRKTWESLPAHSRPLKNRINVVISRQEVLDLGGGAYHARSLDDALALLSQIYDSTSKIQLNRVFVIGGGELCKAAMEHSRLNRIIATVIHNEVDCDVFFPIDFRSSQSCLPWRKQDHSVLEAWVGSKVPQGKINENGFIYEFEMWIRDI [L9M], the “selection coefficient … (log2)” value runs as follows: (methotrexate 8.8 µM) 0.0544 ± 0.031; (methotrexate 44 µM) -0.0504 ± 0.11.
The matching figures for MDWQKSLTLIVALTLSRGIGLKNDLPWKLKSDMMFFSRVTSGLLVTRSTGQMNVVLMGRKTWESLPAHSRPLKNRINVVISRQEVLDLGGGAYHARSLDDAMALLSQIYDSTSKIQLNRVFVIGGGELCKAAMEHSRLNRIIATVIHNEVDCDVFFPIDFRSSQSCLPWRKQDHSVLEAWVGSKVPQGKINENGFIYEFEMWIRDI [L102M]: -0.0864 ± 0.019 and -0.116 ± 0.038.
As for MDWQKSLTLIVALTLSRGIGLKNDLPWKLKSDMMFFSRVTSGLLVTRSTGQMNIVLMGRKTWESLPAHSRPLKNRINVVISRQEVLDLGGGAYHARSLDDALALLSQIYDSTSKIQLNRVFVIGGGELCKAAMEHSRLNRIIATVIHNEVDCDVFFPIDFRSSQSCLPWRKQDHSVLEAWVGSKVPQGKINENGFIYEFEMWIRDI [V54I], the “selection coefficient … (log2)” value reads like this: (methotrexate 8.8 µM) -0.0909 ± 0.17; (methotrexate 44 µM) -0.0743 ± 0.26.
The corresponding values for MDWQKSLTLIVALTLSRGIGLKNDLPWKLKSDMMFFSRVTSGLLVTRSTGQMNVVLMGRKTWESLPAHSRPLKNRINVVISRQEVLDLGGGAYHARSLDDALALLSQIYDSTSKIQLNRVFVIGGGELCKAAMEHSRLNRIIATVIHNEVDCDVFFPIDYRSSQSCLPWRKQDHSVLEAWVGSKVPQGKINENGFIYEFEMWIRDI [F160Y] are 0.116 ± 0.05 and -0.0166 ± 0.053.
Turning to MDWQKSLTLIVALTLSRGIGLKNDLPWKLKSDMMFFSRVTSGLLVTRSTGQMNVVLMGRKTWESLPAHSRPLKNRINVVISRQEVLDLGGGAYHARSLDDALALLSQIYDSTSKIQLNRVFVIGGGELCKAAMEHSRLNRIIATVIHNEVDCDVFFPIDNRSSQSCLPWRKQDHSVLEAWVGSKVPQGKINENGFIYEFEMWIRDI [F160N], the “selection coefficient … (log2)” value was 0.503 ± 0.036 (methotrexate 8.8 µM) and 0.533 ± 0.03 (methotrexate 44 µM).
Take MDWQKSLTLIVALTLSRGIGLKNDLPWKLKSDMMFFSRVTSGLLVTRSTGQMNVVLMGRKTWESLPAHSRPLKNRINVVISRQEVLDLGGGAYHARSLDDALALLSQIYDSTSKIQLNRVFVIGGGELCKAAMEHSRLNRIIATVIHNEVDCDVFFPIDFRSSQSCLPWRKQDHSVLEAWVGSKVPQGKINENGFIYHFEMWIRDI [E198H]: the “selection coefficient … (log2)” value by setting is: (methotrexate 8.8 µM) -0.0348 ± 0.073; (methotrexate 44 µM) -0.118 ± 0.047.
Regarding MDWQKSLTLIVALTLSRGIGLKNDLPWKLKSDMMFFSRVTSGLLVTRSTGQMNVVLMGRKTWESLPAHSRPLKNSINVVISRQEVLDLGGGAYHARSLDDALALLSQIYDSTSKIQLNRVFVIGGGELCKAAMEHSRLNRIIATVIHNEVDCDVFFPIDFRSSQSCLPWRKQDHSVLEAWVGSKVPQGKINENGFIYEFEMWIRDI [R75S], the “selection coefficient … (log2)” value by setting is: (methotrexate 8.8 µM) -0.347 ± 0.1; (methotrexate 44 µM) -0.147 ± 0.12.
The matching figures for MDWQKSLTLIVALTLSRGIGLKNDLPWKLKSDMMFFSRVTSGLLVTRSTGQMNVVLMGRKTWESLPAHSRPLKNRINVVISRQEVLDLGGGAYHARSLDDALALLSQIYDSTSKIQLNRVFVIGGGELCKAAMEHSRLNRIIATVTHNEVDCDVFFPIDFRSSQSCLPWRKQDHSVLEAWVGSKVPQGKINENGFIYEFEMWIRDI [I146T]: 0.364 ± 0.052 and 0.437 ± 0.092.
The matching figures for MDWQKSLTLIVALTLSRGIGLKNDWPWKLKSDMMFFSRVTSGLLVTRSTGQMNVVLMGRKTWESLPAHSRPLKNRINVVISRQEVLDLGGGAYHARSLDDALALLSQIYDSTSKIQLNRVFVIGGGELCKAAMEHSRLNRIIATVIHNEVDCDVFFPIDFRSSQSCLPWRKQDHSVLEAWVGSKVPQGKINENGFIYEFEMWIRDI [L25W]: -0.255 ± 0.073 and -0.154 ± 0.13.

Values taken from the supplement of paper PMC11125491.
